The text below walks through data of publication PMC12136788.

Sequences and labels used below:
B1: chr17:6048899:6048900:-_ENSMUSG00000015659_ENSMUST00000097432|mus_hu|FALSE|FALSE (ssRNA)
RNA: GGGAGUUCUACAGUCCGACGAUCUUUGACUUCCAACGAGGGGAAGAGAAGAUAGCGAAUAUUAACAGAGUAUUCAGCCAAACGUGAUCCAUGAUGAGGGACACUAUAAAAAAUUAUUCCUCUGGUAUUGUUGAUAACAGUACUCAACAGAGGAUUGAGCAUCA
B2: chr7:141450121:141450122:+_ENSG00000106028_ENST00000265304|hu_mus|hu_hu_hu_mus_True|8_18 (ssRNA)
RNA: GGGAGUUCUACAGUCCGACGAUCUCAUCCGUUCUAUGCCUUUUCUUUUGUCUGGUCACUCAGAAAUAUAAUGUUAUCAGCUAUGAUUGUUGUUGCUUGCCGCCUCACAUUGUUUUUAUCCAUGUAUUCACCAUAGUCCACUUUCAACAGAGGAUUGAGCAUCA
B3: 87157311_87160475_317_CDS_ENSMUSG00000021252_ENSMUST00000021676|mouse|control|control (ssRNA)
RNA: GGGAGUUCUACAGUCCGACGAUCUCCAAAUACAAACAACUCUGAGAGGAAGUGUCCCAGGGCGAGGAGGAAUGUCCACAGUGUGAUGUGAUAGAGUGUUUUGUUGUGGAUGUCAAUGGCACAGAGGCAGCGAAUCACUGAUGACAACAGAGGAUUGAGCAUCA
B4: chr4:142723943:142723944:-_ENSMUSG00000057637_ENSMUST00000105778|mus_hu|FALSE|FALSE (ssRNA)
RNA: GGGAGUUCUACAGUCCGACGAUCUAGGGAUUUACAAGGACUUGGGCUCCUGGUCCCAUCUGCAGGGUUUUCUACAGGUAAAUCGAUGCCAUUAUAUUCAUUGAGAAGAACCUUCUGCAGCAUGCAGGUGGUUGGUUUCCUUUUCAACAGAGGAUUGAGCAUCA
B5: 101923426_101923546_1554_3pUTR_ENSMUSG00000058655_ENSMUST00000169681|mouse|control|control (ssRNA)
RNA: GGGAGUUCUACAGUCCGACGAUCGGUGGAGGGGCUGGCAUUACCUUUAGAGGCUGGUCAGGUUUAGGAGGCUUAGAGGUUGGAGAGUGACAGUCUUCUUCUUUAUUGAGGGUUUCAUUUUCUAGAGACUUCUCACUCUCUCUCCAACAGAGGAUUGAGCAUCA
B6: chr1:196642661:196642662:+_ENSMUSG00000026640_ENSMUST00000027952|mus_hu|FALSE|FALSE (ssRNA)
RNA: GGGAGUUCUACAGUCCGACGAUCACACGCAAGAAUAUCUGUUCUGUUUGGGGGGAGUAUUUCCAUUCUGCCUGCCACCUUCCAUGCCAAGAUGAAGGCCAAAUAAGUCAAAGUGAGGACUUUGAAAUGCAGAAGAUGUUUCCUCAACAGAGGAUUGAGCAUCA
B7: chr5:125867735:125867736:-_ENSMUSG00000008348_ENSMUST00000136312|mus_mus|FALSE|FALSE (ssRNA)
RNA: GGGAGUUCUACAGUCCGACGAUCGGUUUUGCCUGUCAGGGUCUUCACAAAGAUCUGCAUCCCACCUCUGAGGCGAAGGACUAAGUGCAGGGUGGACUCUUUCUGGAUGUUGUAGUCUGACAGGGUGCGGCCAUCUUCCAGCUGCAACAGAGGAUUGAGCAUCA
B8: chr9:64573345:64573346:-_ENSMUSG00000004771_ENSMUST00000172298|mus_hu|motif|central (ssRNA)
RNA: GGGAGUUCUACAGUCCGACGAUCAGAAACAAUGCGGUAAAUCUCUGUUAAAAUUGUCUGAAAAGCAGCUUCUACAUUUGUAGAGUCGGGGGCCGAAGUUUCAAUGAAUGACAAACCAUUCUUUUCUGCAAAAGCUCUUGCUUCCAACAGAGGAUUGAGCAUCA
B9: chr12:73047227:73047228:+_ENSMUSG00000034574_ENSMUST00000085299|mus_hu|FALSE|FALSE (ssRNA)
RNA: GGGAGUUCUACAGUCCGACGAUCUUCAAAUCUUUUGGCAAAUUCUAGUUCAUCUUCAUUUCGGAGCAUUUCAAAAAAGUCUAAAUGCCUAUCUAAUGUUGAAUUUUCGUGUUCCCUUAAUUUAUCUAUUACAGGUUGAAUUCCCAACAGAGGAUUGAGCAUCA
B10: 79237222_79238426_402_CDS_ENSMUSG00000050668_ENSMUST00000170759|mouse|control|control (ssRNA)
RNA: GGGAGUUCUACAGUCCGACGAUCCUUCUGCCUGUUUCUCAGAUUAGCUUGCUGUUGCUUUUCUUCUUUCCGACGGGCUUCUCGGAUCUGCCUCAGCAUCGGCACACCGGGUCUGACAUCUUCUUGAACAUUAAUGAAGGAAUCCAACAGAGGAUUGAGCAUCA
B11: chr2:155479361:155479362:-_ENSMUSG00000038324_ENSMUST00000041059|mus_hu|FALSE|FALSE (ssRNA)
RNA: GGGAGUUCUACAGUCCGACGAUCCCACUCUUCCAACUCCUGAAGGAAGCUGGCUGUGCCCGUUGACUCUGACACCUUUCGAGUCGCCAGUUUGCAAAGCCGCUCAACAAAGCCAGGAAUGCUGAGAAGGGCCGCUUGAUUGAUCAACAGAGGAUUGAGCAUCA
B12: chr19:34954956:34954957:+_ENSG00000126261_ENST00000246548|hu_hu|motif|central (ssRNA)
RNA: GGGAGUUCUACAGUCCGACGAUCGAUCAAUAAAGUAUAGUCCUGGAGGAAGUCAUCUGCUUGAAGCCGGCUGCCAUUUCGGAUUCCAAAUUCUGACAACUUCUUGUGAUUAUUAGCUUCCGUCUCUCCCUCUUCGGAAGAUAUCAACAGAGGAUUGAGCAUCA
B13: chr4:17845017:17845018:+_ENSG00000109805_ENST00000514176|hu_mus|hu_hu_hu_mus_False|38_108 (ssRNA)
RNA: GGGAGUUCUACAGUCCGACGAUCGCUUCCUAACUUAGUAUCUUCAUUAAGGAACUCUGCAAGGUUAAGUUUACUUUUCUGUAGCGCAGCUGUUUUGCUCGUCUUGGGUAAUCUCAUCUUCAUUUCUGAUGGUGGUUCAUGAUCCAACAGAGGAUUGAGCAUCA
B14: chr9:96327448:96327449:+_ENSG00000048828_ENST00000277165|hu_mus|motif|central (ssRNA)
RNA: GGGAGUUCUACAGUCCGACGAUCUAGUCACGAGGUUUCAGAACACAUUGUGUUGACUUUGAAAGGUCAUUUGCAUCUUCGGUGAUUUCAACGUAAUCUCCAUUGAACUUGCUUGUAAAGGAUGUAUGAUGUACUGUGUAUUCACAACAGAGGAUUGAGCAUCA
B15: chr10:122565287:122565288:-_ENSMUSG00000020124_ENSMUST00000020334|mus_mus|FALSE|FALSE (ssRNA)
RNA: GGGAGUUCUACAGUCCGACGAUCAAUUUUGGGCACAAUAACUUUGUAUUGCAUAGGUUUAGCAAGUGGAUCCAUUCUAACUAAAUAAACUUCCAAGCUACGUUCUUUUUUCAUAGGCAAUGGAAGAGUCAAGUAACAGAAAGGCAACAGAGGAUUGAGCAUCA
B16: chrX:98862621:98862622:+_ENSMUSG00000034160_ENSMUST00000044475|mus_hu|mus_mus_mus_hu_False|58_78 (ssRNA)
RNA: GGGAGUUCUACAGUCCGACGAUCCUGCAUCUCCUUUAGAGUGUUUCCCAUAUUAGAAUAAGCAUCAGCAAAGGUAGGACUAAUUCGAAUAGCCUCCUUAUAAUGCAUCAGAGCUUCCUGCAGUUUUCCCUGCUGCUGCAGUACCAACAGAGGAUUGAGCAUCA
B17: chr9:95013113:95013114:-_ENSG00000196305_ENST00000443024|hu_hu|hu_hu_hu_mus_False|18_18 (ssRNA)
RNA: GGGAGUUCUACAGUCCGACGAUCCUCAGUCAGAAAGGGCGUGUAAGGGGCCAUCAGUCUGCACAGAGAAAGCAGGACACUGAACAGUGUCUCCAGAGCCAUGACACAGUCUUCCACCCCAUUUUCACCCUUUAACCUCCUCCUCAACAGAGGAUUGAGCAUCA
B18: chr6:97339032:97339033:-_ENSG00000123545_ENST00000316149|hu_mus|FALSE|FALSE (ssRNA)
RNA: GGGAGUUCUACAGUCCGACGAUCUCUUCAUUUUGAUUGUAUUGCUUUCCUGUCUUCUGGAGGUAAGAUUUUGACUUCAAAAGUAACAAAAUAUUUGAGAAGGGAAUUUACAUCCUUCAGUUCUAAAUAGUACUCUUGAGCGAUCAACAGAGGAUUGAGCAUCA
B19: 64617805_64618362_1239_CDS_ENSMUSG00000024588_ENSMUST00000025484|mouse|control|control (ssRNA)
RNA: GGGAGUUCUACAGUCCGACGAUCCAGACUCAACUGCGUGGAGCACAGCUUGUUGGACUGGAUGUGGGAGUGCACCAGAUCAGCCAGGGCCUUGGAGAACAAUGGAUUUCCAUUAAGAGACUCCGCUCUUCUGAUGUUCUCAGCCAACAGAGGAUUGAGCAUCA
B20: chr5:74677807:74677808:-_ENSG00000113163_ENST00000380494|hu_hu|FALSE|FALSE (ssRNA)
RNA: GGGAGUUCUACAGUCCGACGAUCACGGACACAUCGGUUGUUUAGAGGAGCACUGUCAUGAUCCACAGAAAAAUUACAAACUAUCCAAGUUUCAGGGUCAUUUUCAGUCAAGGCUGGUAUCUUUCGAAUGACAGAAAGAUAUAACAACAGAGGAUUGAGCAUCA
B21: chr2:235962676:235962677:+_ENSG00000130147_ENST00000392011|hu_hu|FALSE|FALSE (ssRNA)
RNA: GGGAGUUCUACAGUCCGACGAUCCCCCCAUUCGUUAAAAAAGUGAUUUUAAAUUUAAAUUUAUACUUAACAAAUAGAAAGCUAUGUGAUUGGCAACGAGCUGCAGUAGGCAGUCCCUUCAGGCCUCUCCCUCGAUGGAGGAGGCAACAGAGGAUUGAGCAUCA
B22: chr5:33170631:33170632:-_ENSMUSG00000054280_ENSMUST00000120129|mus_mus|motif|central (ssRNA)
RNA: GGGAGUUCUACAGUCCGACGAUCGGAAUGGCACAGAGUAGCCUUCGGCUUUGGUAUGUGGCUGCGCAAGUUCUCGCGGGCGGCGGUUUCAGGUUCCAAUGGCUUGGCAGGCACAGUACAUGGGCUGAGAAGUCUGUGUGCUUUCAACAGAGGAUUGAGCAUCA

This is one part of the list.

The assay addresses T1, UNK ZnF1-3 (human, UniProt Q9C0B0 31-174).
T1 sequence: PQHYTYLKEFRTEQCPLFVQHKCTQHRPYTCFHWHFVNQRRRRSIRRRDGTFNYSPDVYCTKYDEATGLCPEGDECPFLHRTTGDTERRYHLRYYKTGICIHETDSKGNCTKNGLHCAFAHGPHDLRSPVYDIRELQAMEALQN
In words: nsRBNS (natural sequence RNA bind-n-seq); RBNS binding buffer (assumed for nsRBNS): 25 mM Tris pH 7.5, 150 mM KCl, 3 mM MgCl2, 0.01% Triton X-100, 500 ug/ml BSA, 20 U/ml SUPERase-In, 4 C; UNK is unkempt and MSI1 is Musashi-1; names of the RNAs are library labels; protein concentration not given here; high values mean tight binding.
On to B1, for which the binding signal is 1.7 enrichment R.

Turning to B2, the binding signal came to 0.392 enrichment R. Turning to B3, the binding signal was determined as 1.85 enrichment R. In turn, B4 registered a binding signal of 0.538 enrichment R. Molecule B5 registered a binding signal of 1.31 enrichment R.

Consider B6, for which the binding signal was 1.14 enrichment R. For the molecule B7, the binding signal was determined as 0.824 enrichment R. B8 registered a binding signal of 1.24 enrichment R. As for B9, the binding signal is 0.588 enrichment R. Molecule B10 displayed a binding signal of 0.58 enrichment R.

On to B11, for which the binding signal was 0.817 enrichment R.

On to B12, for which the binding signal is 0.861 enrichment R. B13 registered a binding signal of 0.499 enrichment R.

Molecule B14 had a binding signal of 0.889 enrichment R.

Molecule B15 showed a binding signal of 1.18 enrichment R.

Turning to B16, the binding signal was 0.944 enrichment R.

In turn, B17 had a binding signal of 1.17 enrichment R. Molecule B18 gave a binding signal of 0.889 enrichment R.

In the case of B19, the binding signal came out at 0.944 enrichment R. B20: the binding signal is 0.914 enrichment R. For the molecule B21, the binding signal was found to be 2.17 enrichment R. For B22 the value was 0.886 enrichment R.
